From PubChem BioAssay AID1460 (National Center for Advancing Translational Sciences (NCATS), 2008)
About 5,800 (2.1%) of roughly 270,000 compounds were called active. This list was built around the results that the source calls inconclusive (neither active nor inactive); the mix of calls is not that of the screen. Calls follow the shape of the dose curve; as a rule, active = well fitted inhibition curve with a large enough effect; inconclusive = small, poorly fitted or top-dose-only effect; inactive = flat fitted curve, though single readings scatter. Potencies beside an inconclusive call are fits to weak or partial responses and may not hold up.

biological target: Microtubule-associated protein tau (Homo sapiens) (UniProt P10636); experiment: qHTS for Inhibitors of Tau Fibril Formation, Thioflavin T Binding; details: recombinant tau K18 P301L (four-repeat tau fragment), heparin-induced fibrillization, ThT fluorescence; series mostly up to 57.4 µM; also: nearly all actives have a fitted effect of over 55% in size
Procedure, shortened: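 Tau K18 P301L fragment (15 uM unlabeled plus 0.24 uM Alexa 594-labeled) in 100 mM sodium acetate pH 7 with compound, fibrillization induced by 20 uM heparin for 6 hr at 37 C. Thioflavin T (30 uM) added, fluorescence read after 1 hr (ex 450, em 510 nm).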
Potency is read from the fitted curve at half-maximal effect; tags tell the direction and shape of the fitted curve.

Sequence of UniProt P10636 (P10636 whole entry, looked up, the tested form may be a part): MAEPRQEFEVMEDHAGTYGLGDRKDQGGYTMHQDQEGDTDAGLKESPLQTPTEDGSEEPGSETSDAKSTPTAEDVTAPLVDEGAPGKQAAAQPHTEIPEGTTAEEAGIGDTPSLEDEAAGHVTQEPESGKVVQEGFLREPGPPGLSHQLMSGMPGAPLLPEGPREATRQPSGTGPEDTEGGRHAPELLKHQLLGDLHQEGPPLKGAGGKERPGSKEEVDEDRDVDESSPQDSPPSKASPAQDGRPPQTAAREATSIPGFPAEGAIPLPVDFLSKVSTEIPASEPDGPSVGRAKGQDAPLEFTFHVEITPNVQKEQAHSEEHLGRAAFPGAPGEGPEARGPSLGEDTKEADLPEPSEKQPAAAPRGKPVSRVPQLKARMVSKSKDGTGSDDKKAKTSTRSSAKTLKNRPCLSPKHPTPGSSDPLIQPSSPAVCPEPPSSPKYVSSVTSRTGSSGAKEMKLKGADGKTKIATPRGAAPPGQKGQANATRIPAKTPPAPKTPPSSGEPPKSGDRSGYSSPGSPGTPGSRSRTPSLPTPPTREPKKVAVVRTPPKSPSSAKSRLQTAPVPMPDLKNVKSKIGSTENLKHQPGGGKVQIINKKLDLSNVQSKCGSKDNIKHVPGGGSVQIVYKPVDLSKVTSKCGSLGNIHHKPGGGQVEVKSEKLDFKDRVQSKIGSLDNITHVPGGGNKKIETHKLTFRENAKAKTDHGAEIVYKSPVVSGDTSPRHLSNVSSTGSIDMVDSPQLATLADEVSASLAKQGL

Structure (SMILES)	Potency
COc1ccc(-n2c(C)cc(/C=C/c3nc(O)c([N+](=O)[O-])c(=O)[nH]3)c2C)cc1	active: 15.8 µM
CC1CCc2nc(NC(=O)CSc3nc4ccccc4o3)sc2C1 (stereo not drawn)	inconclusive: 1.26 µM [inhibitor, full curve]
Cc1oncc1-c1csc(-c2ccccc2)n1	inconclusive: 20 µM [inhibitor, single point]
O=C(Nc1ccc(C(=O)N2CCOCC2)cc1)c1cc(-c2cccnc2)nc2ccc(Cl)cc12	inconclusive: 44.7 µM [inhibitor, single point]
Cc1nn2c(C(F)(F)F)cc(-c3ccc(Cl)cc3)nc2c1C(=O)N1CCOCC1	inactive
COc1ccc(/C=N/NC(=O)c2cccnc2)c(C(=O)O)c1OC	inactive
Cc1ccc(S(=O)(=O)Nc2cccc(CP(=O)(c3ccccc3)c3ccccc3)c2)cc1	inactive
Cc1nn(-c2ccccc2)c(OC(=O)c2ccc(Br)cc2)c1S(=O)(=O)c1ccccc1	inactive
Cc1ccc(CC(=O)N(Cc2nc(-c3ccc(C)cc3)no2)C(C)C)cc1	inconclusive: 39.8 µM [inhibitor, single point]
COc1ccc(C2C3=C(CCCC3=O)Nc3ccc4ncccc4c32)cc1OC (stereo not drawn)	inconclusive: 0.891 µM [inhibitor, partial curve, poor fit]
Cc1ccc(-n2ncc3c(NNC(=O)c4cccs4)ncnc32)cc1	inconclusive: 7.08 µM [inhibitor, full curve, poor fit]
Cc1ccc(C2CCN(C(=O)c3cnn(-c4ccccc4Cl)c3C3CCN(C(=O)OC(C)(C)C)CC3)C2)cc1 (stereo not drawn)	inconclusive: 11.2 µM [inhibitor, partial curve]
COc1ccc2nc(N(CCN(C)C)C(=O)/C=C/c3cccs3)sc2c1	inconclusive: 17.8 µM [inhibitor, partial curve]
CN(C)c1ccc(N=Nc2ccccc2C(=O)OCC(=O)N(C)c2ccccc2)cc1	active: 1.58 µM
COc1ccc(CN(C(=O)c2ccc(-c3ccccc3)[nH]2)C(C(=O)NC(C)(C)C)c2ccncc2)cc1 (stereo not drawn)	inconclusive: 20 µM [inhibitor, partial curve]
O=C(NCc1ccco1)c1cccc(S(=O)(=O)N2CCOCC2)c1	inactive
CCOC(=O)c1ccc2c(c1)[nH]c(=S)n2CC	inconclusive: 4.47 µM [inhibitor, full curve, poor fit]
CCOc1ccc(NC(=O)c2cccc3c2C(=O)N(Cc2cccnc2)C3)cc1	inconclusive: 39.8 µM [inhibitor, single point]
C/C(=N\NC(=O)c1ccccc1)c1ccc(C)c([N+](=O)[O-])c1	inconclusive: 17.8 µM [inhibitor, single point]
COc1ccc(C(=O)/C=C/c2ccc(N3CCCCC3)c([N+](=O)[O-])c2)cc1	active: 7.94 µM
Cc1ccc2[nH]cc(C(c3ccccc3)c3cccs3)c2c1 (stereo not drawn)	inconclusive: 14.1 µM [inhibitor, partial curve]
COc1cc(OC)c(NC(=O)c2ccc3nc(C(C)C)oc3c2)cc1Cl	inactive
NC(=O)c1c(Nc2nc3c(F)cccc3s2)sc2c1CCCC2	inconclusive: 10 µM [inhibitor, partial curve]

Structure (SMILES)	Potency
COc1ccc(OCC(=O)O/N=C(\N)Cc2ccc(Cl)cc2)cc1	inconclusive: 31.6 µM [inhibitor, single point]
N#Cc1nc(-c2ccccc2F)oc1NCCc1ccccc1	inconclusive: 39.8 µM [inhibitor, single point]
c1ccc(-c2csc(Nc3ncccn3)n2)cc1	inconclusive: 17.8 µM [inhibitor, partial curve]
Cc1ccc(C(=O)Nc2cccc(C(=O)OCc3cc(=O)n4c5c(sc4n3)CCCC5)c2)cc1	inconclusive: 2.82 µM [inhibitor, full curve]
Cc1cnc(C(=O)Nc2nnc(SCc3c(Cl)cccc3Cl)s2)cn1	inconclusive: 11.2 µM [inhibitor, partial curve]
CC/C(=C\C1CCCCC1)C(NP(=O)(c1ccccc1)c1ccccc1)c1ccccc1 (stereo not drawn)	inconclusive: 17.8 µM [inhibitor, partial curve]
COc1ccc(C(=O)Sc2ccc(C)cc2)cc1OC	inconclusive: 17.8 µM [inhibitor, partial curve]
Cc1c(F)cccc1NC(=O)C1CCCN1S(=O)(=O)c1ccc(F)cc1 (stereo not drawn)	inactive
CN(C)CCCN(C(=O)c1ccc2c(c1)CCCC2)c1nc2ccc(F)cc2s1	inconclusive: 31.6 µM [inhibitor, single point]
COc1cc(/C=C(\C#N)C(=O)NC2CCCCC2)ccc1OCc1ccc(C(=O)O)cc1	inactive
COC(=O)CC1(C(=O)OC)Oc2ccc(Br)cc2C(=O)N1c1ccc(Br)cc1Cl (stereo not drawn)	inconclusive: 39.8 µM [inhibitor, single point]
O=C(OCCN1C(=O)c2cccc3c(N4CCOCC4)ccc(c23)C1=O)c1ccc(Cl)cc1	inconclusive: 1.12 µM [inhibitor, partial curve]
O=Cc1cccn1-c1nccc(-c2ccco2)n1	inactive
O=C(CCc1ccccc1)N1CCN(c2ccc([N+](=O)[O-])cc2)CC1	inconclusive: 8.91 µM [inhibitor, partial curve]
Cc1sc(NC(=O)C2CCCO2)c(C(N)=O)c1C (stereo not drawn)	inconclusive: 31.6 µM [inhibitor, single point]
Cc1noc(NS(=O)(=O)c2ccc(N/C=C\C(=O)c3cccc4ccccc34)cc2)c1C	active: 10 µM
O=C1C2C3CCCC3=C3CCCC3C2C(=O)N1c1ccccc1 (stereo not drawn)	inactive
COc1ccc(Nc2ccc3cc(S(=O)(=O)N4CCCC4)ccc3n2)cc1Cl	inconclusive: 11.2 µM [inhibitor, partial curve]
Cc1ccc(C)c(OCC(=O)O/N=C(\N)c2ccccn2)c1	inconclusive: 39.8 µM [inhibitor, single point]
Cc1cccc(OCc2nnc(SCC(=O)OC3CCCCC3)o2)c1	inconclusive: 5.01 µM [inhibitor, partial curve]
CCc1cc(C=NC2CCCCC2)c(O)s1	inactive
CC(Oc1ccc(Cl)cc1)C(=O)NCCN1C(=O)S/C(=C\c2cccnc2)C1=O (stereo not drawn)	inconclusive: 14.1 µM [inhibitor, partial curve]
COc1ccc(N2CCN(S(=O)(=O)c3c(C)nc4scc(C)n4c3=O)CC2)cc1	inconclusive: 17.8 µM [inhibitor, single point]

Structure (SMILES)	Potency
C=C1/C(=C\C=C2/CCC[C@]3(C)C([C@H](C)CCCC(C)(C)O)CC[C@@H]23)C[C@@H](O)C[C@@H]1O (stereo partly drawn)	inconclusive: 25.1 µM [inhibitor, single point]
Cc1ccc(C)c(NC(=O)N2CC=C(c3c[nH]c4ccccc34)CC2)c1	inconclusive: 17.8 µM [inhibitor, partial curve]
C=C1C[C@@]23C[C@@]1(O)CCC2[C@@]12C=CC(O)[C@](C)(C(=O)O1)C2C3C(=O)O (stereo partly drawn)	inactive
CC1Cc2ccccc2N1C(=O)CSc1nnnn1C (stereo not drawn)	inactive
CC1(C)OC(=O)C(=Cc2ccc[nH]2)C(=O)O1	inactive
Cc1ccc2nc(/N=C(\N)NC(=O)N3c4ccccc4Sc4ccccc43)nc(C)c2c1	inconclusive: 5.62 µM [inhibitor, full curve]
COc1ccccc1C(=O)Nc1ccc(-c2nnc(SCC(=O)O)n2C)cc1	inactive
COc1ccc(-n2nc3ccc(NC(=O)COc4ccc(C)c(C)c4)cc3n2)cc1	inconclusive: 2.24 µM [inhibitor, full curve]
CCOC(=O)c1c(NC(=O)CCCOc2ccc(C(C)(C)C)cc2)sc2c1CCC2	inconclusive: 39.8 µM [inhibitor, single point]
COC(=O)c1ccc(O)c(Sc2cc(C(=O)OC)ccc2O)c1	inconclusive: 15.8 µM [inhibitor, partial curve]
COc1ccc(/C=C2\C(=O)ON=C2c2cccc([N+](=O)[O-])c2)cc1	inconclusive: 17.8 µM [inhibitor, partial curve]
CS(=O)(=O)N(CC(=O)NCC1CCCO1)c1cccc([N+](=O)[O-])c1 (stereo not drawn)	inconclusive: 8.91 µM [activator, single point]
CCOc1ccc(NC(=O)COC(=O)C2(C)CC2(Cl)Cl)c([N+](=O)[O-])c1 (stereo not drawn)	inconclusive: 14.1 µM [inhibitor, partial curve]
Clc1nccc2c1ccc1ccccc12	inconclusive: 17.8 µM [inhibitor, single point]
C=CCOc1ccc(C2CC(C)=NN2c2ccccc2)cc1 (stereo not drawn)	inconclusive: 20 µM [inhibitor, single point]
O=c1[nH]c(NNC(=S)NCc2ccccc2)nc2c1C1(CCCCC1)Cc1ccccc1-2	inactive
CCOC(=O)c1sc2cc([N+](=O)[O-])cc(SCC(=O)OC)c2c1N	active: 7.08 µM
COc1ccc(CCNC(=O)CCc2c(C)nc3cc(-c4ccccc4)nn3c2C)cc1OC	inconclusive: 17.8 µM [inhibitor, partial curve, poor fit]
C/C(=N\NC(=O)c1ccco1)c1cc2ccccc2o1	inconclusive: 7.94 µM [inhibitor, full curve]
CCCOc1cccc(C(=O)NC(=S)Nc2ccc(N3CCN(C)CC3)cc2)c1	inconclusive: 12.6 µM [inhibitor, partial curve]
C/C(=N\N=C(N)N)c1cccc(Cl)c1	inactive
O=c1cc(-c2ccccc2)nc(N2CCCCC2)[nH]1	inactive
